Test results published in PMC6737914.
No constants are given. Whether binding was seen depends on the method and setting. In cells and extracts the contact can be indirect. Some entries that bind do so weakly or less than the wild type.

By UniProt entry, the sequences of proteins in these tests, tags left out. Where a name states a change or a piece, a line headed by the entry shows the natural chain unless it says otherwise.
UniProt P53622: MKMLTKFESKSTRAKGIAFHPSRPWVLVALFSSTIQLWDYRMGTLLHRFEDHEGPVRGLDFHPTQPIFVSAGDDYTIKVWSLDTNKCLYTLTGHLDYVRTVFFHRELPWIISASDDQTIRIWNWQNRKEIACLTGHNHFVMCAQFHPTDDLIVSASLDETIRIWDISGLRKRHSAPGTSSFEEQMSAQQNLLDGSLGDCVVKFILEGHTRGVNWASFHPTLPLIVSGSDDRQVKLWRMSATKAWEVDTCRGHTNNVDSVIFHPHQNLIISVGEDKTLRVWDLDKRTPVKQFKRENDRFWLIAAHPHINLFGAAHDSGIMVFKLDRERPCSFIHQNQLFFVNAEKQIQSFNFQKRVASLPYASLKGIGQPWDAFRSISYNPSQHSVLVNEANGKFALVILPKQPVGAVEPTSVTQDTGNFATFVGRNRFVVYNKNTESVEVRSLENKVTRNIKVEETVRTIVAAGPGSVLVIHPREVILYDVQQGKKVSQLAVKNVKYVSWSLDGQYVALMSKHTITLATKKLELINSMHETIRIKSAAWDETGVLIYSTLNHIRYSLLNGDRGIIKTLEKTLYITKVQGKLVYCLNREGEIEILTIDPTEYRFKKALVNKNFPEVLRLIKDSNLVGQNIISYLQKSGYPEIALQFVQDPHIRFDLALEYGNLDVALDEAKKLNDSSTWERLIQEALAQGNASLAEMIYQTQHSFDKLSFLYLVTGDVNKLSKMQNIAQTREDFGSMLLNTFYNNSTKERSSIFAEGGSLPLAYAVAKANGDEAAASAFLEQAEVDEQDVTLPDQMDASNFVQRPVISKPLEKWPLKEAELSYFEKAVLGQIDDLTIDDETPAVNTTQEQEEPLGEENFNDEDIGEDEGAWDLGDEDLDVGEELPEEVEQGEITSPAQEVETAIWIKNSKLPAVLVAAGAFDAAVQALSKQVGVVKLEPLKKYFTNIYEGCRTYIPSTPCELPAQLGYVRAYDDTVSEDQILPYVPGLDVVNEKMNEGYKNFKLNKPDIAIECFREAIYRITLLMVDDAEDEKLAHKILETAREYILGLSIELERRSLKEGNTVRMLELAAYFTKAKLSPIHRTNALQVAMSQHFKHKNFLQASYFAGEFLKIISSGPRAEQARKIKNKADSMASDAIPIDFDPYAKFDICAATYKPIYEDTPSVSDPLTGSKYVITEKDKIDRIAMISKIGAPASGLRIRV
UniProt P38682: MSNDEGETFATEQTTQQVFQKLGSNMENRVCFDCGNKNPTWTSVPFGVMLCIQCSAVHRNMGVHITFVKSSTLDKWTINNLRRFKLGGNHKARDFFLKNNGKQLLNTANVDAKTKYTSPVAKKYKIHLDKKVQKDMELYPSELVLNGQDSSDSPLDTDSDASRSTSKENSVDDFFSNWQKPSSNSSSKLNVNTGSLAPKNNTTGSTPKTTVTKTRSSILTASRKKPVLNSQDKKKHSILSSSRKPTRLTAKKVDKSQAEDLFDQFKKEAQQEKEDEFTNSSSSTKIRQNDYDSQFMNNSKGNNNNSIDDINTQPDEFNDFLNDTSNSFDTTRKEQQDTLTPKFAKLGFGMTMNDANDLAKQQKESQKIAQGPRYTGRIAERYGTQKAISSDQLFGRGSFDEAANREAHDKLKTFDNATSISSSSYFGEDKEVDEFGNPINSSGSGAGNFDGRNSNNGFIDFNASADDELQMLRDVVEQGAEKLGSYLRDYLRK

Columns and labels:
[1] = substrate: COPI coat (coatomer), heptamer of α, β′, ε, β, γ, δ and ζ subunits (S. cerevisiae (endogenous in S. cerevisiae)) (UniProt P53622); assay: co-IP; affinity chromatography of GFP-tagged Glo3 or its variants on µMACS GFP micro-beads from detergent extracts (1% Triton X-100) of Δglo3 or Δgcs1 strains; western blots for COPI and Gcs1
[2] = biological target: Glo3 (bait of the affinity purification following stabilising crosslinking) (S. cerevisiae) (UniProt P38682); assay: cross-linking; affinity purification following stabilising crosslinking (Fig. S3A-E; details not shown)
[3] = biological target: GFP-tagged Glo3 (S. cerevisiae) (UniProt P38682); assay: co-IP; affinity chromatography of GFP-tagged Glo3 or its variants on µMACS GFP micro-beads from detergent extracts (1% Triton X-100) of Δglo3 or Δgcs1 strains; western blots for COPI and Gcs1

B1: overexpressed Gcs1 R54K, GAP-dead mutant of Gcs1 (protein, UniProt P35197 1-352)
chain: MSDWKVDPDTRRRLLQLQKIGANKKCMDCGAPNPQWATPKFGAFICLECAGIHKGLGVHISFVRSITMDQFKPEELLRMEKGGNEPLTEWFKSHNIDLSLPQKVKYDNPVAEDYKEKLTCLCEDRVFEEREHLDFDASKLSATSQTAASATPGVAQSREGTPLENRRSATPANSSNGANFQKEKNEAYFAELGKKNQSRPDHLPPSQGGKYQGFGSTPAKPPQERSAGSSNTLSLENFQADPLGTLSRGWGLFSSAVTKSFEDVNETVIKPHVQQWQSGELSEETKRAAAQFGQKFQETSSYGFQAFSNFTKNFNGNAEDSSTAGNTTHTEYQKIDNNDKKNEQDEDKWDDF
- binding [1]: binds

B2: S. cerevisiae Snf1 (enzyme, UniProt P06782 1-633)
chain: MSSNNNTNTAPANANSSHHHHHHHHHHHHHGHGGSNSTLNNPKSSLADGAHIGNYQIVKTLGEGSFGKVKLAYHTTTGQKVALKIINKKVLAKSDMQGRIEREISYLRLLRHPHIIKLYDVIKSKDEIIMVIEYAGNELFDYIVQRDKMSEQEARRFFQQIISAVEYCHRHKIVHRDLKPENLLLDEHLNVKIADFGLSNIMTDGNFLKTSCGSPNYAAPEVISGKLYAGPEVDVWSCGVILYVMLCRRLPFDDESIPVLFKNISNGVYTLPKFLSPGAAGLIKRMLIVNPLNRISIHEIMQDDWFKVDLPEYLLPPDLKPHPEEENENNDSKKDGSSPDNDEIDDNLVNILSSTMGYEKDEIYESLESSEDTPAFNEIRDAYMLIKENKSLIKDMKANKSVSDELDTFLSQSPPTFQQQSKSHQKSQVDHETAKQHARRMASAITQQRTYHQSPFMDQYKEEDSTVSILPTSLPQIHRANMLAQGSPAASKISPLVTKKSKTRWHFGIRSRSYPLDVMGEIYIALKNLGAEWAKPSEEDLWTIKLRWKYDIGNKTNTNEKIPDLMKMVIQLFQIETNNYLVDFKFDGWESSYGDDTTVSNISEDEMSTFSAYPFLHLTTKLIMELAVNSQSN
- binding [2]: binds

B3: endogenous Gcs1 (protein, UniProt P35197 1-352)
chain: MSDWKVDPDTRRRLLQLQKIGANKKCMDCGAPNPQWATPKFGAFICLECAGIHRGLGVHISFVRSITMDQFKPEELLRMEKGGNEPLTEWFKSHNIDLSLPQKVKYDNPVAEDYKEKLTCLCEDRVFEEREHLDFDASKLSATSQTAASATPGVAQSREGTPLENRRSATPANSSNGANFQKEKNEAYFAELGKKNQSRPDHLPPSQGGKYQGFGSTPAKPPQERSAGSSNTLSLENFQADPLGTLSRGWGLFSSAVTKSFEDVNETVIKPHVQQWQSGELSEETKRAAAQFGQKFQETSSYGFQAFSNFTKNFNGNAEDSSTAGNTTHTEYQKIDNNDKKNEQDEDKWDDF
- binding [3]: no binding
